The supplement of paper PMC11417369
The other results are listed elsewhere or left out.

These sequences were tested on PfSIP2 AP2 domain 1 (GST-tagged) (assay: gcPBM binding intensity (ln(normalized median fluorescence intensity)); higher = stronger DNA binding).
In short: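 Binding of GST-tagged P. falciparum DNA-binding domains, expressed in E. coli and used at about 25 μg on average, was carried out for 1 h in 1× PBS containing 1% milk, 0.2 mg/ml BSA, 0.5% salmon testes DNA and 0.03% Triton X-100. The target was an Agilent 4 × 180k array of primer-extended double-stranded 36-bp intergenic genomic probes plus negative controls, read with Alexa488 anti-GST antibody at 488 nm. Binding intensity is the highest Masliner-normalised natural-log median intensity across replicate spots of either probe orientation.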
“ATTTATTTATTTAGCTGTACATTTATACAGAACGAT [XGTACX_site3336]” was tested, and the “gcPBM binding intensity (ln)” value was 7. For “TTAATACCCGGACACACACACACAAAATAAAATACA [CACACA_site4296]”, the “gcPBM binding intensity (ln)” value was 7.3. In the case of AATTTTTGTTACAAGATGCACTTAATTTTTCTAAAT, the “gcPBM binding intensity (ln)” value is reported as 8.46. “AATAAAAATTCAAGTTGTACTTTTTTAAAAATACAA [XGTACX_site3949]” was tested, and the “gcPBM binding intensity (ln)” value was 6.76. “TGATAACCAAAAAGGGGTACATACACAAAAAAATAC [XGTACX_site1254]” was tested, and the “gcPBM binding intensity (ln)” value was 7.89. In the case of “AACAACATTTGATAAACACACAGAAGTATAAATATA [CACACA_site5327]”, the “gcPBM binding intensity (ln)” value is reported as 6.94. For “TACTTATTAGACTATTGTACATACATTATTAATATT [XGTACX_site7849]”, the “gcPBM binding intensity (ln)” value was 7.36. With “TAAAAAATTAAGCAACGTACAAATGAAAAGTATAAT [XGTACX_site1058]” the “gcPBM binding intensity (ln)” value was 7.16. For “TAACAATAACTTTATACACACATAATATAAATATAT [CACACA_site7635]”, the “gcPBM binding intensity (ln)” value was 6.93. For “TAAAATTTTAACAAAAAAAAAAAAAAAAAAAGAAAA [CACACA_negctrl_site1335]”, the “gcPBM binding intensity (ln)” value was 6.76. In the case of “TATATCATCATGTATGTACACACATACATATATTAT [CACACA_site8387]”, the “gcPBM binding intensity (ln)” value is reported as 7.09. For “TACGTATTATAAATATGTACATATAATATGTATATA [XGTACX_site468]”, the “gcPBM binding intensity (ln)” value was 7. For “ATAAAGAAAAATAGAAGTACATATATGCATGTTAAT [XGTACX_site4480]”, the “gcPBM binding intensity (ln)” value was 7.2. For “AACAATAAAAATAATTGTACAAGTCTAAAAAAAATT [XGTACX_site20]”, the “gcPBM binding intensity (ln)” value was 6.86. In the case of “ATAACAAAATAATAATGTACGTATAAATATAATTTA [XGTACX_site6049]”, the “gcPBM binding intensity (ln)” value is reported as 7.29. “CAAAAACATACCTACACACACAATATGTATATATAA [CACACA_site3514]” was tested, and the “gcPBM binding intensity (ln)” value was 6.94. “AAATTGAAATATTCCTGTACACATTTTGAAAACTTA [XGTACX_site6101]” was tested, and the “gcPBM binding intensity (ln)” value was 6.96. For “AAAATATAGTAACACATACACACATATATATTTATA [CACACA_site2504]”, the “gcPBM binding intensity (ln)” value was 7.04. “TTGTTATGTTTTATTTGTACGTAGGTTTCTATCAAA [XGTACX_site7636]” was tested, and the “gcPBM binding intensity (ln)” value was 7.25. With “TATTAAACTAAATGTAGTACATACACAAAAGAAACC [XGTACX_site606]” the “gcPBM binding intensity (ln)” value was 7.82. For “TGTTTGAATATAATCACACATTTATATAAAAAGTTA [CACACA_site5237]”, the “gcPBM binding intensity (ln)” value was 6.72. With “TTATGAAAATATTTTTTTCGTTTGATGTATATGTTT [CACACA_negctrl_site1556]” the “gcPBM binding intensity (ln)” value was 6.88. In the case of “AAAAAATATAAATATGTAAAAAGAGAAAAAAAAAAG [GTGCAC_negctrl_site9]”, the “gcPBM binding intensity (ln)” value is reported as 7.02. “TATAAACATAAAACCAGTACATATATATTTTTCTTC [XGTACX_site212]” was tested, and the “gcPBM binding intensity (ln)” value was 6.84. With “ATATTTAATTCATCATGTACACAAATAAGAAACAAA [XGTACX_site8076]” the “gcPBM binding intensity (ln)” value was 7.56. “TGAAAATGGGAACCGTGTACAGGGCAGTTATAGGGG [XGTACX_site2950]” was tested, and the “gcPBM binding intensity (ln)” value was 7.27. For “GATTCGATCTATATATGTACACATAAATATTTTTTG [XGTACX_site7015]”, the “gcPBM binding intensity (ln)” value was 7.21. For “TATATATTTATTTATTGTACACTCTTTAAGAATACA [XGTACX_site2569]”, the “gcPBM binding intensity (ln)” value was 6.95. For “TATATATATATATATATATATATATATGTGTATGTA [TGCATGCA_negctrl_site255]”, the “gcPBM binding intensity (ln)” value was 9.4. With ATACACAAGAATATGTTGCACTTTTATATTCGTATG the “gcPBM binding intensity (ln)” value was 7.9. With “AATAAAATTGACCATTCACACAAGAAAAATTAATCA [CACACA_site5636]” the “gcPBM binding intensity (ln)” value was 6.72. For “AATATTTATATTAACTGTACAGAAAATATCTTTGCT [XGTACX_site8130]”, the “gcPBM binding intensity (ln)” value was 7.05. In the case of “GATATATAAATTGACACACACATATATACCTATATA [CACACA_site6689]”, the “gcPBM binding intensity (ln)” value is reported as 7.07. In the case of “TTCTTTTTTTTTTTTTCATGTATATTAAACTTTTCA [TGCATGCA_negctrl_site592]”, the “gcPBM binding intensity (ln)” value is reported as 7.05. For “CATAAGATTTTTACATGTACATATTTATAATATATT [XGTACX_site6578]”, the “gcPBM binding intensity (ln)” value was 7.2. “AATATAAAAATGTTTACACACACACCGAAATATATT [CACACA_site8800]” was tested, and the “gcPBM binding intensity (ln)” value was 7.3. In the case of “TATGCCATGGCATAATGTACATAAGTGACCTCATAA [XGTACX_site1294]”, the “gcPBM binding intensity (ln)” value is reported as 6.96. With “ATATATTTAAAAAAATGTACAAATCATAAATGCAAG [XGTACX_site4230]” the “gcPBM binding intensity (ln)” value was 7.07. For “TATAATGTTGATGATAGTACGTATGAGTTCAAAAAA [XGTACX_site3651]”, the “gcPBM binding intensity (ln)” value was 7.07. For “AGAAATTAAATGTAAGCACACATAAATTATACACAT [CACACA_site9098]”, the “gcPBM binding intensity (ln)” value was 6.89. With “AAAAAATTATACCAGTGTACTTTTTTGGTTTTTCTT [XGTACX_site2601]” the “gcPBM binding intensity (ln)” value was 6.99. “AAAAGAATTAATTTATGTACTAATTTCAAGAAATAA [XGTACX_site3241]” was tested, and the “gcPBM binding intensity (ln)” value was 6.93. “TCCTTACACACACTTTTTTTTTTTTTTTTTTCTACA [GTGCAC_negctrl_site263]” was tested, and the “gcPBM binding intensity (ln)” value was 6.97. For “ATATATTATCAACTTACACACAGAAAACTATAATAA [CACACA_site6275]”, the “gcPBM binding intensity (ln)” value was 7.02. With “CTTTTTCCTTTATAAAGTACTTAAAATATTTAGATA [XGTACX_site4259]” the “gcPBM binding intensity (ln)” value was 7.12. With “CTCGATCAAGTGTATGCATGTACCAGTGAACAAAAA [TGCATGCA_site635]” the “gcPBM binding intensity (ln)” value was 7.05. “AAAAAAAAAAATAAATGTACAAAATAATGGGGAACA [XGTACX_site8723]” was tested, and the “gcPBM binding intensity (ln)” value was 7.12. “GTGAATGATTTAAGTACACACCGGTATTTATTCAAA [CACACA_site4950]” was tested, and the “gcPBM binding intensity (ln)” value was 7.09. In the case of “AAAAAAAAAAAATACACACACACATATTTATTTATA [CACACA_site6483]”, the “gcPBM binding intensity (ln)” value is reported as 6.85. For TGTATTAAAAATTTGGTGCAACTTTTACATAATAAT, the “gcPBM binding intensity (ln)” value was 10.5. In the case of “TTTTTTTTTTTTTTTTGTACGAATAAACAAGTTATT [XGTACX_site5473]”, the “gcPBM binding intensity (ln)” value is reported as 6.92. In the case of “ATATATATATATATATGTACATATTTTATTTAATTT [XGTACX_site1807]”, the “gcPBM binding intensity (ln)” value is reported as 9.33. “AACTGTACAATTTTTGTGCACAATAATTATTAATAT [GTGCAC_site9462]” was tested, and the “gcPBM binding intensity (ln)” value was 8.74. For “TGCTATATAATATGAGCACACATAAGATTTGGTGTT [CACACA_site8148]”, the “gcPBM binding intensity (ln)” value was 6.8. In the case of “ATATTTTTATTTAAACGTACATACACGTTGAAAAGA [XGTACX_site4567]”, the “gcPBM binding intensity (ln)” value is reported as 7.19. With “TAATGCATTATTAGAATACACACCATACGCATATTT [CACACA_site289]” the “gcPBM binding intensity (ln)” value was 6.85. “TGATGTTGTAACAAAAGTACACACACATTTCTATAA [XGTACX_site5837]” was tested, and the “gcPBM binding intensity (ln)” value was 7.11.
